Source: PubChem BioAssay AID651820 (National Center for Advancing Translational Sciences (NCATS), 2012)
Hit rate of the full screen: of about 340,000 compounds, about 12,000 (3.5%) were called active. The shares of active, inactive and inconclusive entries below differ from those in the screen. Calls follow the shape of the dose curve; as a rule, active = well fitted inhibition curve with a large enough effect; inconclusive = small, poorly fitted or top-dose-only effect, or another doubt; inactive = no such curve, though single readings can be large or run the other way. No potency is given beside an inconclusive call; the fits are too rough.

assay: qHTS Assay for Inhibitors of Hepatitis C Virus (HCV); settings: Huh7.5.1 HCVcc-Cre (HCVcc is cell-culture hepatitis C virus) infection, luciferase reporter, 44 h; activity change, negative = inhibition: at 41.8 µM (top of the series)
Outline: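 Compounds are dispensed onto cells plated 4 h earlier at 1,000 per well, with HCVcc-Cre virus (about 0.5 moi) added next. Following 44 h of culture, luminescent signal is measured for 15 sec after 15 min with substrate at room temperature.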
% is scaled to controls: 0 for no effect and ±100 for the full control effect; potency is read from the fitted curve at half-maximal effect; tags tell the direction and shape of the fitted curve.

SMILES	activity change, negative = inhibition	Potency
CN1/C(=C\C=Nc2ccccc2)C(C)(C)c2ccccc21	inactive: -27.7%	–
O=C(CCCN1CCOCC1)c1ccc2c(c1)OCCO2	inactive: 6.06%	–
Cc1ccc2c(c1)c1c(n2CC(O)Cn2c(C)nc3ccccc32)CCCC1 (configuration not stated)	inactive: -24.8%	–
COc1cccc(CNC(=O)CSCc2cnn(-c3ccccc3)c2-n2cccc2)c1	–	inconclusive [inhibitor, full curve]
O=c1[nH]c(C(F)(F)F)nc2ccccc12	–	inconclusive [inhibitor, single point]
N#Cc1nc(COc2ccccc2)oc1N1CCC(Cc2ccccc2)CC1	inactive: -25.6%	–
COc1cccc(-c2cc(C(=O)Nc3ccc(OC)c(OC)c3)no2)c1	inactive: -16.3%	–
CC(C)c1ccc(NC(=O)CSc2nc(=O)n(CCCN3CCOCC3)c3c2CCCC3)cc1	–	inconclusive [inhibitor, single point]
COc1cc(CNC2CCCCCCC2)c(Br)cc1OCCO	–	inconclusive [inhibitor, partial curve]
O=S(=O)(c1ccc(-c2csc(=Nc3ccccc3)n2CCCN2CCOCC2)cc1)N1CCOCC1	inactive: -28.8%	–
COc1ccc(N=Cc2nc(-c3ccccc3)oc2OC(=O)c2ccccc2)cc1	inactive: 3.01%	–
O=C(/C=C/c1ccco1)NC(=S)Nc1cccc(-c2nc3ccccc3o2)c1	–	inconclusive [inhibitor, single point]
O=C(Nc1ccccc1N1CCOCC1)C1CCN(S(=O)(=O)c2ccc(F)cc2)CC1	–	inconclusive [inhibitor, partial curve, poor fit]
Cc1ccc2nc(SCC(=O)N3CCOCC3)[nH]c2c1	inactive: -6.6%	–
CCn1nc(NC(=O)c2ccncc2)c2cc3ccccc3nc21	–	inconclusive [inhibitor, partial curve]
Cc1ccc(S(=O)(=O)N2CCC(C(=O)OC(C)C(=O)NC3CCCCC3C)CC2)cc1C (configuration not stated)	inactive: 1.6%	–
CCCN(C(=O)C(NC(=O)c1ccccc1)C(C)C)c1c(N)n(Cc2ccccc2)c(=O)[nH]c1=O (configuration not stated)	–	inconclusive [inhibitor, single point]
CN(C)CCCNc1ncnc2c1cnn2-c1ccccc1	inactive: -29.5%	–
Nc1c(Cl)ncnc1N/N=C/c1ccncc1	inactive: 13.6%	–
CCCc1nc(SCC(=O)c2ccccc2)c2c(=O)n(C)c(=O)n(C)c2n1	–	active: 11.2 µM
COc1ccc(CN2CCN(C(=O)c3c(-c4ccccc4)noc3C)CC2)cc1F	–	inconclusive [inhibitor, single point]
O=C(O)c1cc(Cl)c2c(c1)[C@@H]1C=CC[C@@H]1[C@H](c1ccc(S(=O)(=O)N3CCOCC3)cc1)N2	–	inconclusive [inhibitor, single point]
COc1cc2c(cc1OC)C(C)N(C(=O)[C@@H](NC(=O)c1ccccc1)C(C)C)CC2 (some centres not stated)	–	active: 1.41 µM
Cc1cc(NCc2ccc(F)cc2)nc2cc(Cl)ccc12	–	inconclusive [inhibitor, full curve]
CCn1c(=NC(=O)CN2C(=O)CCC2=O)sc2c(OC)ccc(OC)c21	–	inconclusive [inhibitor, partial curve]
COc1ccc2[nH]c(C)c(CCN3C(=O)C4CC=CCC4C3=O)c2c1 (configuration not stated)	inactive: -15.2%	–

SMILES	activity change, negative = inhibition	Potency
CCS(=O)(=O)c1ccc2oc(SCC(=O)NCCc3ccccc3)nc2c1	inactive: 7.13%	–
O=C(C[C@H]1C/C=C\CC[C@@H](Cc2ccc(F)cc2)C(=O)OC[C@H]2CCCN2C1=O)N[C@H](CO)Cc1ccccc1	–	inconclusive [inhibitor, single point]
O=C(CN1CCCCC1)Nc1ccc(Br)cc1C(=O)c1ccccc1Cl	–	inconclusive [inhibitor, single point]
CCOC(=O)c1cnc2c(C)cccc2c1NCCc1ccc(OC)c(OC)c1	–	inconclusive [inhibitor, partial curve]
Cc1ccc(N2CCN(CCc3nc4cc(NC(=O)c5ccco5)ccc4n3C)CC2)cc1	–	inconclusive [inhibitor, partial curve]
O=C(c1cn(Cc2ccccc2)nc1-c1cccnc1)N1CCN(Cc2c(F)cccc2Cl)CC1	inactive: -22.7%	–
CCOc1ccc(-n2nnnc2-c2nc3ccccc3s2)cc1	inactive: 5.61%	–
Cc1c(C(=O)O)cccc1-n1c(C)cc(/C=C(/C#N)C(=O)NCc2ccccc2)c1C	inactive: 0.618%	–
COC(=O)C1=C(c2ccc(-c3ccccc3)c(F)c2)C[C@@H]2CC[C@H]1N2C(=O)NCCOc1ccc(OC)cc1	–	inconclusive [inhibitor, partial curve]
CC1(C)CCSC(/C=C/c2ccccc2)=N1	–	inconclusive [inhibitor, single point]
CCc1noc(C)c1C(=O)NNC(=O)c1ccc(Br)cc1	inactive: 1.78%	–
O=C(Nc1ccc2c(c1)OCO2)c1cc(Cl)ccn1	–	inconclusive [inhibitor, full curve, poor fit]
COc1ccc(C2=[N+](C)CCn3cccc32)c(OC)c1	inactive: -6.08%	–
S=C(NC1CCCCC1)NN(c1ccccc1)c1ccccc1	–	inconclusive [inhibitor, single point]
COc1ccc(C(=O)N/N=C\c2coc3ccc(Cl)cc3c2=O)cc1	inactive: -24%	–
COc1cc(C(=O)NCCc2c[nH]c3ccccc23)ccc1OCc1c(C)noc1C	inactive: -28.5%	–
COc1cc(NC(=O)c2ccc(C(=O)c3ccccc3)cc2)cc(OC)c1OC	–	inconclusive [inhibitor, partial curve]
Cc1cc(Cl)c(S(=O)(=O)N2CCN(c3ccc(F)cc3)CC2)cc1OCC(=O)NC1CCCCC1	–	active: 0.794 µM
CCCCn1c(=O)c(CC(C)=O)nc2ccccc21	–	inconclusive [inhibitor, single point]
O=C(CCS(=O)(=O)c1ccc(Br)cc1)NCCc1ccccc1	inactive: -10.6%	–
CN(Cc1ccc2c(c1)OCO2)C(=O)c1cc(-c2ccccc2)c(N2CCOCC2)s1	–	active: 10 µM
CC(=O)Nc1ccc(S(=O)(=O)NC2CC(=O)N(c3ccc(C)cc3)C2)cc1 (configuration not stated)	inactive: -0.977%	–
O=C(N/N=C/c1cc(Br)cc(Br)c1O)c1cccc(S(=O)(=O)N2CCOCC2)c1	–	inconclusive [inhibitor, single point]
C/C(=N\NC(=S)Nc1ccc(C)cc1)c1cc2ccccc2o1	–	active: 10 µM
CCOC(=O)C1(CCc2ccccc2)CCN(C2CCSCC2)CC1	inactive: 7.69%	–
COc1ccc(-n2c(-c3ccccc3)nc3ccccc3c2=O)cc1	–	inconclusive [inhibitor, single point]

SMILES	activity change, negative = inhibition	Potency
O=C(Nc1cccc(Cl)c1)NC1CCS(=O)(=O)C1 (configuration not stated)	inactive: 6.26%	–
COc1ccc(-c2oc3ncnc(NCCCN4CCOCC4)c3c2-c2ccc(OC)cc2)cc1	–	active: 2.82 µM
CCCC(=O)NC(=S)Nc1ccccc1C(F)(F)F	–	inconclusive [inhibitor, single point]
COc1cccc2c1nc(C)c1cc(C)oc12	–	active: 5.62 µM
COc1ccc(Cl)cc1NC(=O)C(C)Sc1nncn1C (configuration not stated)	–	inconclusive [inhibitor, full curve]
Cc1cc(C)cc(NC(=O)COc2coc(CN3CCc4ccccc43)cc2=O)c1	–	inconclusive [inhibitor, single point]
CC(C)c1ccc(NC(=O)C2CCN(S(=O)(=O)c3ccc4c(c3)C(C)(C)C(=O)N4C)CC2)cc1	–	inconclusive [inhibitor, partial curve, poor fit]
c1ccc2cc(OCc3nc4ccccc4[nH]3)ccc2c1	–	inconclusive [inhibitor, single point]
CCOC(=O)C(CO)(NC(C)=O)C(=O)OCC	inactive: -6.39%	–
CCCN1C(=O)SC(CC(=O)Nc2ccc(Br)cc2)C1=O (configuration not stated)	–	inconclusive [inhibitor, full curve]
COc1ccc(-c2cn3c(C)c(C(=O)N4CCCc5ccccc54)sc3n2)cc1	–	active: 11.2 µM
Cc1occc1-c1nnc(SCC(=O)Nc2ccccc2N2CCCCC2)n1C	–	inconclusive [inhibitor, partial curve]
Cc1nc2ccc3nc(NC(=O)c4ccco4)sc3c2s1	inactive: 12.8%	–
FC(F)(F)c1cc(-c2ccco2)nc(NCCc2ccccc2)n1	–	inconclusive [inhibitor, single point]
NC(=O)NC(=O)Nc1ccccc1Cl	inactive: -6.42%	–
O=C(Nc1ccccc1)c1ccc(-n2cnnn2)cc1	inactive: -9.01%	–
CCC(C(=O)NC1CCCC1)n1c2ccccc2c2nc(=O)cc(C)n21 (configuration not stated)	inactive: -5.89%	–
COc1cc(OC)cc(C(=O)Nc2cc(C)nn2-c2ccccc2)c1	inactive: -28.2%	–
CC1=C(OC(=O)C(C)(C)C)C(C)(C)C(c2ccccc2)OC1=O (configuration not stated)	–	inconclusive [inhibitor, single point]
COc1cccc(CN2CCNC(=O)C2CC(=O)N(Cc2cnn(C)c2)C(C)C)c1 (configuration not stated)	–	inconclusive [inhibitor, single point]
CCN(c1cccc(C)c1)C(C(=O)Nc1ccc(OC)cc1)c1cc2c(cc1[N+](=O)[O-])OCO2 (configuration not stated)	inactive: -4.44%	–
O=C(c1ccc(Br)o1)N1N=C(c2ccc(Cl)cc2)CC1c1ccco1 (configuration not stated)	–	inconclusive [inhibitor, single point]
CCCn1c(-c2cccc(F)c2)nc2c1c(=O)[nH]c(=O)n2Cc1ccccc1	inactive: 4.15%	–
Cc1ccc(S(=O)(=O)N2CCN(S(=O)(=O)c3ccccc3Br)C2=O)cc1	inactive: -13.6%	–
CC(C)Cn1c(-c2ccccc2)nc2ccccc2c1=O	–	inconclusive [inhibitor, partial curve]
